Measured values: PubChem BioAssay AID220 (DTP/NCI, 2004)
Records with an inconclusive call do not appear. A number of entries come with more than one value. The other results are left out here. There may be further records. Values given together differ for a reason that is not stated; dose, time, organism, isomer or construct need not be as stated for each record.

Test system: CD8F1 mice, subcutaneous mammary adenocarcinoma, T/C%
Assay: NCI In Vivo Anticancer Drug Screen. Data for tumor model Mammary Adenocarcinoma CD8F1 (subcutaneous) in CD8F1
Conditions: higher = larger tumour
Procedure, shortened: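 Tumor-bearing mice, transplantable model; readout survival or tumor size; value = treated (T) / vehicle control (C).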

[1] = endpoint: median tumor weight change, dose: 125.0 mg/kg/injection, schedule: Q01DX001 (ip), vehicle: saline with Tween-80
[2] = endpoint: median tumor weight change, dose: 500.0 mg/kg/injection, schedule: Q01DX001 (ip), vehicle: saline with Tween-80
[3] = endpoint: median tumor weight change, dose: 1000.0 mg/kg/injection, schedule: Q01DX001 (ip), vehicle: saline with Tween-80
[4] = endpoint: median tumor weight change, dose: 500.0 mg/kg/injection, schedule: Q01DX001 (ip), vehicle: Klucel (hydroxypropylcellulose) (HPC)
[5] = endpoint: median tumor weight (est.), dose: 12.5 mg/kg/injection, schedule: Q07DX005 (ip), vehicle: Klucel (hydroxypropylcellulose) (HPC)
[6] = endpoint: median tumor weight change, dose: 250.0 mg/kg/injection, schedule: Q01DX001 (ip), vehicle: saline with Tween-80
[7] = endpoint: median tumor weight (est.), dose: 6.25 mg/kg/injection, schedule: Q07DX005 (ip), vehicle: Klucel (hydroxypropylcellulose) (HPC)
[8] = endpoint: median tumor weight (est.), dose: 25.0 mg/kg/injection, schedule: Q07DX005 (ip), vehicle: Klucel (hydroxypropylcellulose) (HPC)
[9] = endpoint: median tumor weight (est.), dose: 25.0 mg/kg/injection, schedule: Q07DX005 (ip), vehicle: saline with Tween-80
[10] = endpoint: median tumor weight (est.), dose: 100.0 mg/kg/injection, schedule: Q07DX005 (ip), vehicle: saline with Tween-80
[11] = endpoint: median tumor weight (est.), dose: 200.0 mg/kg/injection, schedule: Q07DX005 (ip), vehicle: saline with Tween-80

CCCCCC1c2cc(O)ccc2OC1N1CCOCC1 (configuration not stated)
T/C [1]: 59 % of control and 90 % of control
T/C [2]: 65 % of control and 119 % of control
T/C [3]: 39 % of control and 82 % of control

O=C1CN(CCN2CC(=O)N(CN3CCOCC3)C(=O)C2)CC(=O)N1CN1CCOCC1
T/C (endpoint: median tumor weight change, dose: 250.0 mg/kg/injection, schedule: Q01DX001 (ip), vehicle: water): 21 % of control and 53 % of control

C[n+]1cccc(NC(=O)c2ccc(NC(=O)C34CCC(C(=O)Nc5ccc(C(=O)Nc6ccc[n+](C)c6)cc5)(CC3)CC4)cc2)c1
T/C (endpoint: median tumor weight change, dose: 100.0 mg/kg/injection, schedule: Q01DX001 (ip), vehicle: saline with Tween-80): 31 % of control, 47 % of control, 84 % of control

O=C1C(NCC(O)CO)=C(N2CC2)C(=O)C(NCC(O)CO)=C1N1CC1 (configuration not stated)
T/C (endpoint: median tumor weight change, dose: 16.0 mg/kg/injection, schedule: Q01DX001 (ip), vehicle: suspension in saline): -36 % of control, 20 % of control, 23 % of control
T/C (endpoint: median tumor weight change, dose: 32.0 mg/kg/injection, schedule: Q01DX001 (ip), vehicle: suspension in saline): -60 % of control, -35 % of control, 2 % of control

Nc1ccc(S(=O)(=O)Nc2cnc3c(Cl)cccc3n2)cc1
T/C (endpoint: median tumor weight change, dose: 250.0 mg/kg/injection, schedule: Q01DX001 (ip), vehicle: DMSO): 90 % of control and 156 % of control
T/C (endpoint: median tumor weight change, dose: 1000.0 mg/kg/injection, schedule: Q01DX001 (ip), vehicle: DMSO): 16 % of control and 88 % of control

Oc1c(Cl)cc(Cl)cc1C=NCCSc1ccc(Cl)cc1
T/C [4]: 51 % of control and 81 % of control

OCC1OC(n2cnc3c2nnn2ccnc32)C(O)C1O (configuration not stated)
T/C (endpoint: mean tumor weight, dose: 300.0 mg/kg/injection, schedule: Q07DX005 (ip), vehicle: saline): 44 % of control and 207 % of control

CN(Cc1cnc2nc(N)nc(N)c2n1)c1c(Cl)cc(C(=O)NC(CCC(=O)O)C(=O)O)cc1Cl (configuration not stated)
T/C [5]: 66 % of control and 174 % of control
T/C (endpoint: median tumor weight (est.), dose: 100.0 mg/kg/injection, schedule: Q07DX005 (ip), vehicle: Klucel (hydroxypropylcellulose) (HPC)): 87 % of control and 124 % of control
T/C (endpoint: median tumor weight (est.), dose: 200.0 mg/kg/injection, schedule: Q07DX005 (ip), vehicle: Klucel (hydroxypropylcellulose) (HPC)): 53 % of control and 98 % of control
T/C (endpoint: median tumor weight (est.), dose: 400.0 mg/kg/injection, schedule: Q07DX005 (ip), vehicle: Klucel (hydroxypropylcellulose) (HPC)): 35 % of control and 62 % of control

Nc1n[n+](-c2ccccc2)no1
T/C (endpoint: median tumor weight (est.), dose: 6.25 mg/kg/injection, schedule: Q07DX005 (ip), vehicle: water): 16 % of control and 106 % of control
T/C (endpoint: median tumor weight (est.), dose: 12.5 mg/kg/injection, schedule: Q07DX005 (ip), vehicle: water): 57 % of control and 108 % of control
T/C (endpoint: median tumor weight (est.), dose: 25.0 mg/kg/injection, schedule: Q07DX005 (ip), vehicle: water): 15 % of control and 113 % of control

C[CH2][Ge]([CH2]C)[CH2]C.C[CH2][Ge]([CH2]C)[CH2]C.C[CH2][Ge]([CH2]C)[O][Ge]([CH2]C)[CH2]C
T/C [6]: 77 % of control and 117 % of control

O=C(CCCN1CCC(O)(c2cccc(C(F)(F)F)c2)CC1)c1ccc(F)cc1
T/C [7]: 106 % of control and 160 % of control
T/C [5]: 58 % of control and 89 % of control
T/C [8]: 72 % of control and 110 % of control

CN(C)c1ccc2c(N(C)C)cc(N(C)C)nc2c1
T/C [5]: 39 % of control and 115 % of control
T/C [8]: 39 % of control and 75 % of control
T/C (endpoint: median tumor weight (est.), dose: 50.0 mg/kg/injection, schedule: Q07DX005 (ip), vehicle: Klucel (hydroxypropylcellulose) (HPC)): 42 % of control and 123 % of control

CCc1nc(N)nc(N)c1-c1ccc(Cl)c(N=[N+]=[N-])c1
T/C [6]: 35 % of control and 78 % of control
T/C [2]: 54 % of control and 88 % of control
T/C [3]: 9 % of control and 58 % of control

CC[PH+](CC)CC[S-].CC[PH+](CC)CC[S-].[Au+].[Au+]
T/C (endpoint: median tumor weight change, dose: 50.0 mg/kg/injection, schedule: Q01DX001 (ip), vehicle: Klucel (hydroxypropylcellulose) (HPC)): 51 % of control and 97 % of control

O=c1cc(CCl)[nH]nc1CCl
T/C [9]: 42 % of control and 72 % of control

CC[C@@]1(O)C[C@H](OC2CC(N(C)C)C(OC3CC(O)C(O[C@@H]4O[C@@H](C)C(=O)C=C4N)C(C)O3)C(C)O2)c2c(cc3c(c2O)C(=O)c2c(O)ccc(O)c2C3=O)[C@H]1C(=O)OC (some centres not stated)
T/C (endpoint: median tumor weight (est.), dose: 2.0 micrograms/kg/injection, schedule: Q07DX005 (ip), vehicle: Klucel (hydroxypropylcellulose) (HPC)): 84 % of control and 195 % of control
T/C (endpoint: median tumor weight (est.), dose: 8.0 micrograms/kg/injection, schedule: Q07DX005 (ip), vehicle: Klucel (hydroxypropylcellulose) (HPC)): 122 % of control and 174 % of control
T/C (endpoint: median tumor weight (est.), dose: 16.0 micrograms/kg/injection, schedule: Q07DX005 (ip), vehicle: Klucel (hydroxypropylcellulose) (HPC)): 72 % of control and 189 % of control

COc1ccc2nc3cc(Cl)ccc3c(NCCNCCNCCNc3c4ccc(Cl)cc4nc4ccc(OC)cc34)c2c1
T/C [10]: 24 % of control and 92 % of control

NC(CCl)=NCC12CC3CC(CC(C3)C1)C2
T/C [7]: 65 % of control and 162 % of control

CC(C)CCCCCCCCCCCCC(=O)NCC(=O)NC1C(O)C(O)C(Nc2ncnc3nc[nH]c23)OC1C(O)CO (configuration not stated)
T/C (endpoint: median tumor weight (est.), dose: 4.0 mg/kg/injection, schedule: Q07DX005 (ip), vehicle: Klucel (hydroxypropylcellulose) (HPC)): 14 % of control and 97 % of control

CC(=O)O[C@@H]1CO[C@H]2O[C@H]3[C@@H](C(C=O)=C[C@H](O)[C@@H]4C5=C(C(C)C)CC[C@]5(C)CC[C@@]34C)[C@@]2(O)C1=O
T/C (endpoint: median tumor weight change, dose: 7.5 mg/kg/injection, schedule: Q01DX001 (ip), vehicle: Klucel (hydroxypropylcellulose) (HPC)): 69 % of control and 97 % of control

C[C@]12CC[C@@H]3c4ccc(OC(=O)Cc5ccc(N(CCCl)CCCl)cc5)cc4CC[C@H]3[C@@H]1CC[C@@H]2OC(=O)Cc1ccc(N(CCCl)CCCl)cc1
T/C [10]: 55 % of control and 83 % of control
T/C [11]: 38 % of control and 70 % of control

CC(=O)NCCCCCCNC(C)=O
T/C (endpoint: median tumor weight change, dose: 250.0 mg/kg/injection, schedule: Q01DX001 (ip), vehicle: saline): 59 % of control and 93 % of control
T/C (endpoint: median tumor weight change, dose: 2000.0 mg/kg/injection, schedule: Q01DX001 (ip), vehicle: saline): 36 % of control and 97 % of control

CN(C)CCN1C(=O)c2cccc3cc(N)cc(c23)C1=O
T/C (endpoint: median tumor weight change, dose: 20.0 mg/kg/injection, schedule: Q01DX001 (ip), vehicle: saline with Tween-80): 41 % of control, 79 % of control, 98 % of control
T/C (endpoint: median tumor weight change, dose: 80.0 mg/kg/injection, schedule: Q01DX001 (ip), vehicle: saline with Tween-80): -4 % of control and 42 % of control

Clc1ccc(C2SC=Cc3ccccc32)cc1 (configuration not stated)
T/C (endpoint: median tumor weight change, dose: 125.0 mg/kg/injection, schedule: Q01DX001 (ip), vehicle: Klucel (hydroxypropylcellulose) (HPC)): 55 % of control, 95 % of control, 101 % of control
T/C [4]: 15 % of control and 69 % of control

OC1(CSc2ccccc2)CCCCC1
T/C [1]: 50 % of control and 95 % of control
T/C [6]: 96 % of control, 106 % of control, 174 % of control
T/C [2]: 43 % of control, 78 % of control, 107 % of control

Cc1ncc([N+](=O)[O-])n1CCSC(N)=O
T/C [9]: 48 % of control and 101 % of control
T/C [11]: 76 % of control and 103 % of control

CNC(=O)c1cccc2c(Nc3ccc(NS(C)(=O)=O)cc3OC)c3cccc(C)c3nc12
T/C (endpoint: median tumor weight change, dose: 15.0 mg/kg/injection, schedule: Q01DX001 (ip), vehicle: other): 41 % of control and 67 % of control
T/C (endpoint: median tumor weight change, dose: 30.0 mg/kg/injection, schedule: Q01DX001 (ip), vehicle: other): 24 % of control and 84 % of control
T/C (endpoint: median tumor weight change, dose: 60.0 mg/kg/injection, schedule: Q01DX001 (ip), vehicle: other): -43 % of control and 28 % of control

CN=S(=O)(OCCCCCOS(=O)(=NC)c1ccccc1)c1ccccc1 (configuration not stated)
T/C (endpoint: median tumor weight change, dose: 31.25 mg/kg/injection, schedule: Q01DX001 (ip), vehicle: saline with Tween-80): 86 % of control and 114 % of control
T/C [1]: 76 % of control, 90 % of control, 122 % of control

O=P1(NCCCl)OCCCN1CCCl (configuration not stated)
T/C (endpoint: median tumor weight change, dose: 25.0 mg/kg/injection, schedule: Q01DX001 (ip), vehicle: saline): 58 % of control, 86 % of control, 97 % of control

CC[C@@]1(O)C(=O)OCc2c1cc1n(c2=O)Cc2cc3ccccc3nc2-1
T/C (endpoint: median tumor weight change, dose: 3.0 mg/kg/injection, schedule: Q01DX001 (ip), vehicle: saline with Tween-80): 93 % of control and 119 % of control
